Measured values published in the antibiotic and cytotoxicity screens of Wong et al. (2023).
The list shows a part of the results.

Tested on: S. aureus RN4220
Assay: growth inhibition call (relative growth <= 0.2)
Settings: 50 µM

| SMILES | growth inhibition call |
| --- | --- |
| COc1cccc(S(=O)(=O)N(C)C[C@@H]2Oc3ncc(-c4cccc(C(=O)N(C)C)c4)cc3C(=O)N([C@@H](C)CO)C[C@H]2C)c1 | inactive |
| CC(C)NC(=O)Nc1ccc2c(c1)C(=O)N([C@@H](C)CO)C[C@H](C)[C@@H](CN(C)C(=O)Nc1ccc3c(c1)OCO3)O2 | inactive |
| C[C@H](CO)N1C[C@H](C)[C@@H](CN(C)S(=O)(=O)c2ccc(Cl)cc2)OCc2cnnn2CCCC1=O | inactive |
| C#CC1(O)CCC2C3CCC4=C(CCC(=O)C4)C3CCC21C (configuration not stated) | inactive |
| CC(=O)NS(=O)(=O)c1ccc(N)cc1 | inactive |
| N#CCON1C(=O)c2ccccc2C1=O | inactive |
| C[C@H]1CN([C@@H](C)CO)C(=O)c2cc(C#CCN(C)C)cnc2O[C@@H]1CN(C)C(=O)CN1CCOCC1 | inactive |
| C[C@@H]1CCCCO[C@@H](CN(C)C(=O)c2ccncc2)[C@H](C)CN([C@@H](C)CO)C(=O)c2cc(NS(C)(=O)=O)ccc2O1 | inactive |
| O=C(C[C@H]1C[C@H]2c3cc(NC(=O)NC4CCCC4)ccc3O[C@H]2[C@@H](CO)O1)NCc1ccc(-c2ccccc2)cc1 | inactive |
| CC[C@@H](C)NC(=O)C1CCNCC1 | inactive |
| COc1ccc2cc1Oc1ccc(cc1)CC1c3cc(c(OC)cc3CCN1C)Oc1c(OC)c(OC)cc3c1C(C2)N(C)CC3 (configuration not stated) | inactive |
| C[C@@H]1CN([C@H](C)CO)C(=O)Cc2cc(NC(=O)Cn3cnnn3)ccc2O[C@@H]1CN(C)C(=O)Nc1ccccc1 | inactive |
| O=C(O)CCn1ccnc1 | inactive |
| CC(C)NC(=O)Nc1ccc2c(c1)CC(=O)N([C@@H](C)CO)C[C@@H](C)[C@@H](CN(C)C(=O)Nc1ccc3c(c1)OCO3)O2 | inactive |
| O=C(C[C@@H]1C=C[C@H](NC(=O)c2ccc(F)cc2)[C@H](CO)O1)NCc1ccncn1 | inactive |
| C[C@H]1CN([C@@H](C)CO)C(=O)c2cccc(NC(=O)Nc3ccc(C(F)(F)F)cc3)c2O[C@@H]1CN(C)Cc1ccc2c(c1)OCO2 | inactive |

| SMILES | growth inhibition call |
| --- | --- |
| C[C@H](CO)N1C[C@H](C)[C@@H](CN(C)C(=O)Nc2ccc(C(F)(F)F)cc2)OCCCC[C@H](C)Oc2ccc(NS(=O)(=O)c3cn(C)cn3)cc2C1=O | active |
| C[C@@H]1CN([C@@H](C)CO)C(=O)c2cccc(NC(=O)c3nc4ccccc4s3)c2O[C@H]1CN(C)Cc1ccc(-c2ccccc2)cc1 | inactive |
| Cn1cnc(S(=O)(=O)N2C[C@@H](O)COC[C@@H]3O[C@H](CC(=O)NC4Cc5ccccc5C4)CC[C@H]32)c1 | inactive |
| Cc1cccc(-c2ccc3c(c2)O[C@H](CN(C)Cc2ccc(C(=O)O)cc2)CCN(C(C)C)S3(=O)=O)c1 | inactive |
| C[C@@H]1CN([C@H](C)CO)C(=O)c2cc(NS(=O)(=O)c3ccccc3)ccc2O[C@@H](C)CCCCO[C@@H]1CN(C)Cc1ccc(Cl)c(Cl)c1 | inactive |
| CCS(=O)(=O)Nc1ccc2c(c1)C(=O)N(C)[C@@H]1CC[C@H](CC(=O)NCc3ccccc3F)O[C@H]1CO2 | inactive |
| C[C@@H]1CCCCO[C@H](CN(C)Cc2ccc(C(=O)O)cc2)[C@H](C)CN([C@@H](C)CO)C(=O)c2cc(NS(=O)(=O)c3cccs3)ccc2O1 | inactive |
| CS(=O)(=O)NC[C@@]12COC[C@H]1CN(C(=O)c1cnccn1)C2 | inactive |
| C[C@H](CO)N1C[C@H](C)[C@H](CN(C)S(=O)(=O)c2ccc(F)cc2)Oc2c(NC(=O)Nc3cccc4ccccc34)cccc2C1=O | inactive |
| O=C(CCCCCNC(=O)OCCCCO[C@@H]1C[C@H](c2ccc(C(F)(F)F)cc2)C=C(C(=O)N2CCN(Cc3ccc4c(c3)OCO4)CC2)O1)NO | inactive |
| C[C@H]1CN([C@@H](C)CO)C(=O)c2cc(NC(=O)Nc3ccc(C(F)(F)F)cc3)ccc2O[C@H]1CN(C)C(=O)Nc1ccc(F)cc1 | inactive |
| CCCNc1ncnc(N)c1[N+](=O)[O-] | inactive |
| Cc1noc(C)c1NC(=O)Nc1cccc2c1O[C@@H](CN(C)S(=O)(=O)c1cn(C)cn1)[C@H](C)CN([C@@H](C)CO)C2=O | inactive |
| C[C@H]1CN([C@@H](C)CO)C(=O)c2cc(NC(=O)C3CCCCC3)ccc2O[C@H]1CN(C)Cc1ccc(C(=O)Nc2ccccc2N)cc1 | inactive |
| CC(=O)N(C)C[C@@H]1Oc2ncc(C#CC(C)(C)O)cc2C(=O)N([C@H](C)CO)C[C@H]1C | inactive |
| COCCOC(=O)N1C(=O)[C@@]2(c3ccccc31)[C@H](C(=O)N1CCc3cc(OC)c(OC)cc3C1)[C@H]1C(=O)O[C@H](c3ccccc3)[C@H](c3ccccc3)N1[C@@H]2c1ccc(O)cc1 | inactive |
